{"source": "the supplement of paper PMC3334620", "note": "Over roughly 33,000 sequences, “E-score (-0.5 to 0.5)” has its median near -0.012; the highest 2% begin near 0.29. Some of the results follow."}
{"biological_target": "T1, Ybr033w (UniProt P38073)", "T1 sequence": "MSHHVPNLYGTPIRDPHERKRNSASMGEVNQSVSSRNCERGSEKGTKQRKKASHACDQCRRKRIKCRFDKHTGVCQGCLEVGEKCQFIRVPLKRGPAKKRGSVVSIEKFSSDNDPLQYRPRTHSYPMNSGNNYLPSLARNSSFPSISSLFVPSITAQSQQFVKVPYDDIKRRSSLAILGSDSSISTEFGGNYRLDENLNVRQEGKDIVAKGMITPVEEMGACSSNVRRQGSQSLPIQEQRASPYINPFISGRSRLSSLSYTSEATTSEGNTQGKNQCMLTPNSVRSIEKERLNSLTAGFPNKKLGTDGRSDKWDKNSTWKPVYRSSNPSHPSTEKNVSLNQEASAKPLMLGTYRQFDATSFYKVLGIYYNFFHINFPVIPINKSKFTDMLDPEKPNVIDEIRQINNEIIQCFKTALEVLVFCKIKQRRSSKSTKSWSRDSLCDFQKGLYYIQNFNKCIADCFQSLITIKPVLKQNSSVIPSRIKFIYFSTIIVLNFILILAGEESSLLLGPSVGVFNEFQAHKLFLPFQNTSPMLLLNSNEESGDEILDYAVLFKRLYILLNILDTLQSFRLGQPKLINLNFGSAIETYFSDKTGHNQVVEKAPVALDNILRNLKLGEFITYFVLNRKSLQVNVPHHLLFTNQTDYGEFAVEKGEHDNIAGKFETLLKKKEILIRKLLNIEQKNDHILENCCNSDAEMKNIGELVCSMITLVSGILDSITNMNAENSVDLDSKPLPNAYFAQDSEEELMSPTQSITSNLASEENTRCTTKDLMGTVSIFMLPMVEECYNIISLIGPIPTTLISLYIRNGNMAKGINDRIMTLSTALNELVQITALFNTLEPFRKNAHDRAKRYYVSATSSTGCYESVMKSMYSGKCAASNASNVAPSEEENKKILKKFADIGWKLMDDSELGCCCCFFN", "test": "PBM E-score (8-mer binding enrichment) (E-score (-0.5 to 0.5)); higher = stronger / more preferred TF binding; most listed sequences are background and not binding sites", "conditions": "protein concentration: 200 nM; construct: GST-full length", "method": "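Universal 'all 10-mer' protein binding microarrays (Agilent AMADID 015681) probed with GST-tagged S. cerevisiae TFs (full-length or DBD) made by in vitro transcription/translation (PURExpress), about 100-200 nM. Bound TF was detected with fluorescent anti-GST. Each ungapped 8-mer (which stands for itself and its reverse complement) is scored by the PBM enrichment score (E-score), a modified Wilcoxon-Mann-Whitney statistic from -0.5 to +0.5, computed with the Universal PBM Analysis Suite. Scale: above 0.35 generally sequence-specific binding.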"}
{"sequence": "AATAAAAT", "PBM E-score": 0.304}
{"sequence": "AAGCGTTC", "PBM E-score": -0.151}
{"sequence": "GATTCCCA", "PBM E-score": -0.0759}
{"sequence": "AGACATCT", "PBM E-score": -0.00752}
{"sequence": "AGCATCCT", "PBM E-score": -0.0531}
{"sequence": "ACAACCAA", "PBM E-score": 0.071}
{"sequence": "GAGCATAC", "PBM E-score": 0.0668}
{"sequence": "AAAGCTTA", "PBM E-score": 0.216}
{"sequence": "AGTCCCAC", "PBM E-score": -0.134}
{"sequence": "CGAATTCC", "PBM E-score": 0.11}
{"sequence": "ATGCAATA", "PBM E-score": 0.164}
{"sequence": "TCACTTCA", "PBM E-score": 0.049}
{"sequence": "GCAACAAC", "PBM E-score": 0.104}
{"sequence": "CGAAATAA", "PBM E-score": 0.264}
{"sequence": "ACCGAAGT", "PBM E-score": -0.0837}
{"sequence": "CGGACACA", "PBM E-score": -0.152}
{"sequence": "GGGAGGAC", "PBM E-score": -0.278}
{"sequence": "CCCTCAGA", "PBM E-score": -0.187}
{"sequence": "ATGCCTCC", "PBM E-score": -0.146}
{"sequence": "GAACCCCC", "PBM E-score": -0.372}
{"sequence": "AATAGTCC", "PBM E-score": -0.0436}
{"sequence": "AGACTATA", "PBM E-score": 0.0641}
{"sequence": "AATTTCCT", "PBM E-score": 0.273}
{"sequence": "CAGGATCC", "PBM E-score": -0.071}
{"sequence": "TTAGAGAA", "PBM E-score": -0.134}
{"sequence": "CGCTTGCC", "PBM E-score": -0.0791}
{"sequence": "CACGGACG", "PBM E-score": -0.00234}
{"sequence": "CAATTAAA", "PBM E-score": 0.224}
{"sequence": "CGACGTCA", "PBM E-score": -0.161}
{"sequence": "AGTAAACC", "PBM E-score": -0.0233}
{"sequence": "ATCGTCAT", "PBM E-score": 0.0883}
{"sequence": "CACTAACA", "PBM E-score": 0.14}
{"sequence": "CGTTTCAC", "PBM E-score": -0.0986}
{"sequence": "ACACGAAC", "PBM E-score": -0.079}
{"sequence": "CCTTCAAC", "PBM E-score": 0.00095}
{"sequence": "ACGACTGG", "PBM E-score": -0.11}
{"sequence": "CCTGCCTC", "PBM E-score": -0.197}
{"sequence": "CCCGTACG", "PBM E-score": -0.311}
{"sequence": "CGGGGCAA", "PBM E-score": -0.0914}
{"sequence": "CTAGAATC", "PBM E-score": -0.0344}
{"sequence": "GCTTGGCC", "PBM E-score": -0.0835}
{"sequence": "CTTTAAAG", "PBM E-score": 0.00135}
{"sequence": "CATGTCAG", "PBM E-score": -0.199}
{"sequence": "CTGTCACC", "PBM E-score": -0.15}
{"sequence": "GAAGCCTA", "PBM E-score": -0.00724}
{"sequence": "AGTTGACG", "PBM E-score": 0.127}
{"sequence": "AGTGAGCC", "PBM E-score": -0.178}
{"sequence": "GATCAAAC", "PBM E-score": 0.115}
{"sequence": "CATCACTC", "PBM E-score": -0.0377}
{"sequence": "TCAGCCCA", "PBM E-score": -0.126}
{"sequence": "CAGAGTAC", "PBM E-score": -0.0472}
{"sequence": "CACGCATA", "PBM E-score": -0.0608}
{"sequence": "AGAATCTG", "PBM E-score": -0.00563}
{"sequence": "GCTAAAAA", "PBM E-score": 0.0426}
{"sequence": "ACGTCTTA", "PBM E-score": -0.0921}
{"sequence": "CCGCGGCC", "PBM E-score": -0.226}
{"sequence": "GACGGGCC", "PBM E-score": -0.415}
{"sequence": "TAACTAAA", "PBM E-score": 0.135}
{"sequence": "CGCTGCCG", "PBM E-score": -0.328}
{"sequence": "AGCGTTTA", "PBM E-score": -0.0683}
{"sequence": "TGCCTAAA", "PBM E-score": 0.0317}
{"sequence": "CAACGCTG", "PBM E-score": -0.0341}
{"sequence": "ACTAGGTG", "PBM E-score": -0.13}
{"sequence": "AGCGCCCA", "PBM E-score": -0.213}
{"sequence": "GTCCGCTA", "PBM E-score": -0.055}
{"sequence": "GAAGTGAA", "PBM E-score": 0.155}
{"sequence": "GCGCCGCA", "PBM E-score": -0.161}
{"sequence": "ATTAGGTA", "PBM E-score": 0.207}
{"sequence": "ATCTCCCA", "PBM E-score": -0.14}
{"sequence": "GCATAGGA", "PBM E-score": -0.0355}
{"sequence": "ATCTTACC", "PBM E-score": 0.0215}
{"sequence": "GCGCATAA", "PBM E-score": -0.0124}
{"sequence": "AATATCCT", "PBM E-score": 0.259}
{"sequence": "ATCCGGTC", "PBM E-score": 0.12}
{"sequence": "GTCCATAA", "PBM E-score": -0.176}
{"sequence": "CCGGTCAG", "PBM E-score": -0.177}
{"sequence": "GGGGCAAA", "PBM E-score": -0.286}
{"sequence": "GCCGAAGA", "PBM E-score": -0.0625}
{"sequence": "GCCTAGCA", "PBM E-score": -0.18}
{"sequence": "ACTGCAAC", "PBM E-score": -0.0427}
{"sequence": "GACATGTA", "PBM E-score": 0.217}
{"sequence": "AAATGCCT", "PBM E-score": -0.0175}
{"sequence": "CATCTAAA", "PBM E-score": 0.156}
{"sequence": "CTCGGGCC", "PBM E-score": -0.182}
{"sequence": "CAATGGAC", "PBM E-score": -0.0269}
{"sequence": "ACTTAACT", "PBM E-score": 0.163}
{"sequence": "CTGGGCTC", "PBM E-score": -0.0988}
{"sequence": "GAGCGAAA", "PBM E-score": 0.174}
{"sequence": "CGAGTCCA", "PBM E-score": -0.186}
{"sequence": "CCCAGACC", "PBM E-score": -0.285}
{"sequence": "ACCACAAC", "PBM E-score": 0.175}
{"sequence": "ATTTAGCG", "PBM E-score": 0.0784}
{"sequence": "GACTGCTA", "PBM E-score": -0.0825}
{"sequence": "CCGCCCAG", "PBM E-score": -0.208}
{"sequence": "ACTGCATA", "PBM E-score": 0.0795}
{"sequence": "CACACTAA", "PBM E-score": 0.299}
{"sequence": "AAGGGTGA", "PBM E-score": -0.162}
{"sequence": "CCGTCTCC", "PBM E-score": -0.0669}
{"sequence": "CAGGAGCG", "PBM E-score": -0.0857}
{"sequence": "GTGAGCGA", "PBM E-score": -0.109}
{"sequence": "AGGCTGAA", "PBM E-score": -0.068}
{"sequence": "GACCGTGC", "PBM E-score": -0.265}
{"sequence": "AGAGACCC", "PBM E-score": -0.153}
{"sequence": "ACTCGTAT", "PBM E-score": 0.21}
{"sequence": "CAGGCATA", "PBM E-score": -0.183}
{"sequence": "GATAGCAC", "PBM E-score": -0.101}
{"sequence": "GACTGCTC", "PBM E-score": -0.206}
{"sequence": "TCCCACCA", "PBM E-score": -0.203}
{"sequence": "GAAGCCGC", "PBM E-score": -0.225}
